Source: the RNAGym collection of RNA variant scans (doi:10.1073/pnas.2313332121)
Variants at the background level are over-represented here.

B1: TPR 5TU (parent)
chain: GGAUCUUCUCGAUCUAACAAAAAAGACAAAUCUGCCACAAAGCUUGAGAGCAUCUUCGGAUGCAGAGGCGGCAGCCUUCGGUGGCGCGAUAGCGCCAACGUUCUCAACUAUGACACGCAAAACGCGUGCUCCGUUGAAUGGAGUUUAUCAUG

Variants of: B1
Assay: polymerase ribozyme fitness, log enrichment relative to wild type (log ratio); higher = more active; in vitro selection for triplet polymerase activity
Method in brief: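 After PCR construction and transcription, each subunit's mutant library from a heterodimeric triplet polymerase ribozyme was annealed with a biotinylated primer, the partner subunit and triplets. Incubation was frozen, at −7 °C, and extended constructs were gel-excised, bound to streptavidin beads and amplified by RT-PCR, in one selection round done in triplicate. Fitness is the logarithm of a genotype's enrichment divided by that of the wild type, from inverse-variance-weighted replicate averages of Illumina-sequenced inputs and outputs. The base of the logarithm is 2, and genotypes needed ≥10 input reads and ≥1 read per output.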

Point of comparison: C38A U145C, “polymerase ribozyme fitness (log ratio)” value -0.328. Against it:
- A37G A40C A52C G92C — lower, ≤ -4.2
- A37G A40U C54G A60G — lower, -2.66
- A37G A41C G71A U90A C96U — lower, ≤ -4.2
- A37G A47C G100U G143A — lower, ≤ -4.2
- A37G A52C A66C A73C — lower, ≤ -4.2
- A37G A52U G117U A121C A138G G141C — lower, ≤ -4.2
- A37G A60G G83C C96U G141U — lower, -2.58
- A37G A66U C93G C118A G141A — lower, ≤ -4.2
- A37G A66U C96A C103U — lower, ≤ -4.2
- A37G A97G A98G — lower, -2.55
- A37G C38A C43U C54G G80U U104G — lower, ≤ -4.2
- A37G C51U C72G — lower, ≤ -4.2
- A37G C51U C72U C95A A138U G143U — lower, ≤ -4.2
- A37G C54A C69U G86A A122C G133C U151A — lower, ≤ -4.2
- A37G C85U — lower, -2.1
- A37G C85U G88U A107C — lower, ≤ -4.2
- A37G C93A U145G — lower, -3.99
- A37G C96U C105G — lower, -3.63
- A37G G42A U56A G62A G80U C93A G141A — lower, ≤ -4.2
- A37G G46U A52U C93A C96G G100U — lower, ≤ -4.2
- A37G G48C G50C G65A G74U G84A C103U G136A — lower, ≤ -4.2
- A37G G58A G92C G140U — lower, ≤ -4.2
- A37G G71U A73G C93G C99A C131A — lower, ≤ -4.2
- A37G G74C — lower, ≤ -4.2
- A37G G81C G88C U127G G143A — lower, ≤ -4.2
- A37G G84A U101G A120G — lower, -2.6
- A37G G94A — lower, -1.49
- A37G U45A C76G U82G C93G A113C G136U — lower, ≤ -4.2
- A37G U45G C57G C95U — lower, -3.33
- A37G U53C C87G — lower, ≤ -4.2
- A37G U77C A91U — lower, ≤ -4.2
- A37U A39C C57A C93U A97U U104G C116A — lower, ≤ -4.2
- A37U A39C C103G A120G — lower, ≤ -4.2
- A37U A40C U61A C69U G92C U127C G128A — lower, ≤ -4.2
- A37U A41C A60C G84A U148C — lower, ≤ -4.2
- A37U A41G U45A C93U A119U — lower, ≤ -4.2
- A37U A49G C76A U151A — lower, ≤ -4.2
- A37U A49G U55G C75U G100U A138C A142G — lower, ≤ -4.2
- A37U A52G C76A C96U C131G — lower, ≤ -4.2
- A37U A66G C149U G152C — lower, ≤ -4.2
- A37U A97C A107C C108U — lower, ≤ -4.2
- A37U A115C A119C — lower, -2.95
- A37U C38G A97C — lower, -1.69
- A37U C43U C54U G92U A106U U135G G141C — lower, ≤ -4.2
- A37U C43U U45C C76G C96A C125G G133C G143A — lower, ≤ -4.2
- A37U C51U G92U — lower, -2.25
- A37U C54U C95G A137G U148G — lower, ≤ -4.2
- A37U C57A C63G C75A C108U A115C U130G — lower, ≤ -4.2
- A37U C57G G84A C105A G143A — lower, ≤ -4.2
- A37U C57G G88A C99A G141A — lower, ≤ -4.2
- A37U C63U C69U C99U U102A — lower, ≤ -4.2
- A37U C75A C85U G112C G124C C132G A142G U145A — lower, ≤ -4.2
- A37U C85A C93U G141C A147C — lower, ≤ -4.2
- A37U C85G C125U G141A — lower, ≤ -4.2
- A37U C93A A97G C99A A120U — lower, ≤ -4.2
- A37U C96U G126U — lower, -2.91
- A37U G50A A64U G92A G128A — lower, ≤ -4.2
- A37U G62C C96A U127G — lower, ≤ -4.2
- A37U G68A G92U U101A C103A U135G — lower, ≤ -4.2
- A37U G80C G81C U102A A110U C118G A120U G133U — lower, ≤ -4.2
- A37U G83C A91C A98G G124U — lower, ≤ -4.2
- A37U G83U G140C — lower, ≤ -4.2
- A37U G84A U102C C123G — lower, -4.19
- A37U G94A — lower, -1
- A37U G94C A137C G141C — lower, ≤ -4.2
- A37U U53G G62A C95U — lower, ≤ -4.2
- A37U U56C C69U — lower, -2.76
- A37U U61A A89C C96A A98C U104A — lower, ≤ -4.2
- A37U U90A C93U A106C — lower, ≤ -4.2
- A37U U101G U134G G141A — lower, -4.08
- C38A A40C C93G C95U A107C U144G U146A — lower, ≤ -4.2
- C38A A47U G50C A91U — lower, ≤ -4.2
- C38A A49C G81U C96G — lower, ≤ -4.2
- C38A A49G U56A A60G U90G C95G G112C A113G G117U C118U — lower, ≤ -4.2
- C38A A49U U56G U90C — lower, ≤ -4.2
- C38A A52G A89C C96A A115C C116U U130A G140A U151G — lower, ≤ -4.2
- C38A A60G A73C C95A A115U A142U — lower, ≤ -4.2
- C38A A60U A73G A89U U104C U109C C149A — lower, ≤ -4.2
- C38A A73G C79A C114G G124U G140U U148G — lower, ≤ -4.2
- C38A A89C C93G C95G C108U U135C — lower, ≤ -4.2
- C38A A122U A137G G141U A142G — lower, -3.83
- C38A C43G C54A A91G C96U A150U — lower, ≤ -4.2
- C38A C43U U56G C75G G88A A89C U111C G143U — lower, ≤ -4.2
- C38A C51U C87G C116G A120C A122C — lower, ≤ -4.2
- C38A C54G C69G G70A A138G — lower, ≤ -4.2
- C38A C72A U101G U144A — lower, ≤ -4.2
- C38A C76A C79G G88U C96A G136A — lower, ≤ -4.2
- C38A C76A G92U G136A G152U — lower, ≤ -4.2
- C38A C87A — lower, ≤ -4.2
- C38A C96U C118A A137C — lower, ≤ -4.2
- C38A G42C C87A C118U U139A G141C A147U — lower, ≤ -4.2
- C38A G42C U55G C69U U90G U146C — lower, ≤ -4.2
- C38A G48C G71U — lower, ≤ -4.2
- C38A G59A A64C C93U — lower, ≤ -4.2
- C38A G59A U77A U145A A150C — lower, ≤ -4.2
- C38A G80C G88C A110G — lower, ≤ -4.2
- C38A G84A U148G — lower, ≤ -4.2
- C38A G86C — lower, -3.27
- C38A G94A C123U — lower, -0.611
- C38A U44G G81A C93U C114A G124U U134G — lower, ≤ -4.2
- C38A U53C G67U C93G A106U C118A A120U — lower, ≤ -4.2
- C38A U55A G94U C99G — lower, -3.88
- C38G A49C A66U C79U A97G G136A — lower, ≤ -4.2
- C38G A52G A106G G140U — lower, ≤ -4.2
- C38G A52G G62A U135G — lower, ≤ -4.2
- C38G A64G G74A G94U A97U G100U — lower, ≤ -4.2
- C38G A66G U77G G83U G133C U144A — lower, ≤ -4.2
- C38G A66U G94A C108U — lower, ≤ -4.2
- C38G C54A G74U A106U G140U — lower, ≤ -4.2
- C38G C54G U82C U146A — lower, -1.88
- C38G C75G G83C C105U A138G G141U — lower, ≤ -4.2
- C38G C75U C93G — lower, -4.16
- C38G G58C G84A A119U — lower, -0.795
- C38G G59A U127A U139A — lower, ≤ -4.2
- C38G G70C C125G G140A — lower, ≤ -4.2
- C38G G74U — lower, ≤ -4.2
- C38G G92A C105G — lower, ≤ -4.2
- C38G G92A C149A — lower, ≤ -4.2
- C38G G140C — lower, -4.11
- C38G U44G U56A C69U C93G U144G — lower, ≤ -4.2
- C38G U56A A64G A91G A150G — lower, ≤ -4.2
- C38G U56A G74C U90G C125U — lower, ≤ -4.2
- C38G U56G C72A A91U A107C G117A U148A — lower, ≤ -4.2
- C38U A39C A60U — lower, -3.28
- C38U A40C G80U C95U — lower, -1.06
- C38U A41G G58A — higher, 1.52
- C38U A47C A49C A91C U139A — lower, ≤ -4.2
- C38U A49C — lower, ≤ -4.2
- C38U A52C A60G A119G — higher, 0.129
- C38U A52G A73U G152U — lower, -4.12
- C38U A52G C57U G67U A89U G92A — lower, ≤ -4.2
- C38U A60C G94C A110G C114U C125A — lower, ≤ -4.2
- C38U A60G C72A A91G C123U — lower, ≤ -4.2
- C38U A66C C72U C79A C96A G117A — lower, ≤ -4.2
- C38U A73G G83U A91U A97U A110G — lower, ≤ -4.2
- C38U A73U C87A C118U — lower, ≤ -4.2
- C38U A110U — lower, -3.7
- C38U A120U — lower, -0.54
- C38U A121C G136C A138U U148G — lower, ≤ -4.2
- C38U C43U — lower, ≤ -4.2
- C38U C57U A91G U127G G143A — lower, ≤ -4.2
- C38U C69U A91U C125U G141A — lower, ≤ -4.2
- C38U C69U C76U G141A A142G — lower, ≤ -4.2
- C38U C79A U82G C105G A138C G140A — lower, ≤ -4.2
- C38U C79U G83U A89U G133A U148G — lower, ≤ -4.2
- C38U C85A G117C — higher, -0.0326
- C38U C85G C93U G117U G128C — lower, ≤ -4.2
- C38U C87U — lower, -1.19
- C38U C87U C95U U144A — lower, -1.21
- C38U C87U G94U — lower, -1.73
- C38U C93A A119C A142U — lower, -3.54
- C38U C95A C108U C132U — lower, -3.39
- C38U C96G G152U — lower, -3.85
- C38U C108G A110G U127A G136U — lower, ≤ -4.2
- C38U G46A C95A — lower, -0.705
- C38U G46C C79G A97C U109G — lower, ≤ -4.2
- C38U G48A C87A — lower, ≤ -4.2
- C38U G50A A52U G68U G80A A97G A137U — lower, ≤ -4.2
- C38U G50U U56A G74U C75G C125U U139A — lower, ≤ -4.2
- C38U G58A G59C C69A C79A G80A U82C U90C C96A U109G G112U — lower, ≤ -4.2
- C38U G59A U77C — lower, ≤ -4.2
- C38U G65A C75G C93A — lower, ≤ -4.2
- C38U G68A G80U A89G A91C C93G A107U C118G — lower, ≤ -4.2
- C38U G68A U102G U145C — lower, ≤ -4.2
- C38U G71U G80A C85G — lower, ≤ -4.2
- C38U G74A U90G U144C — lower, ≤ -4.2
